Experimental findings from a collection of fitness landscapes (doi:10.1016/j.celrep.2020.107928) are described below.

B1: Caulobacter ParB omega fusion; a variant is named by its letters at X, in order, B8GW30 (parent)
chain: MESVVVGEPGMSEGRRGLGRGLSALLGEVDAAPAQAPGEQLGGSREAPIEILQRNPDQPRRTFREEDLEDLSNSIREKGVLQPILVRPSPDTAGEYQIVAGERAWRAAQRAGLKTVPIMVRELDDLAVLEIGIIENVQRADLNVLEEALSYKVLMEKFERTQENIAQTIGKSXSHVANXMRLLXLPDEVQSYLVSGELTAXHARAIAAAADPVALAKQIIEGGLSVRETEALARKAPNLSAGKSKGGRPPRVKDTDTQALESDLSSVLGLDVSIDHRGSTGTLTITYATLEQLDDLCNRLTRGI

The full ranking holds about 81,000 sequences; the median of “one-hybrid fitness for binding parS DNA” is about -0.17, and the highest 2% start at about 0.51. The list shows a part of the results.

Variants of B1 are the subject of the test. Kind of test: one-hybrid fitness for binding parS DNA (scaled: cognate 1, non-cognate 0); higher = stronger binding. The following applies: with parS DNA site. The method in brief:
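The reporter was HIS3, with the binding site 19 bp from the promoter, in E. coli USO used for bacterial one-hybrid selection of Caulobacter ParB libraries with four specificity codons randomised. Growth was on M9 lacking histidine, with 0.1 mM IPTG and 5 mM 3-AT, for 48 hours at 37°C. Illumina sequencing covered plasmids before and after selection; three replicate libraries were pooled and variants with under 10 reads dropped. A fitness score is the log change in variant-to-wild-type read ratio, rescaled to the cognate and non-cognate references.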
As to RASE, the “one-hybrid fitness for binding parS DNA” value is not above 0.2. Next, RVNK: not above 0.2; QFET: not above 0.2.

Regarding YTIT, the “one-hybrid fitness for binding parS DNA” value is not above 0.2. As for APMD, the “one-hybrid fitness for binding parS DNA” value was not above 0.2. As to SVAL, the “one-hybrid fitness for binding parS DNA” value was not above 0.2. For SGSP, the “one-hybrid fitness for binding parS DNA” value was not above 0.2. For VDRY, the “one-hybrid fitness for binding parS DNA” value was not above 0.2.

In the case of QDLQ, the “one-hybrid fitness for binding parS DNA” value is not above 0.2. MRAY: the “one-hybrid fitness for binding parS DNA” value is not above 0.2.

On to RNWG, for which the “one-hybrid fitness for binding parS DNA” value was 0.651. Next, TKGT: not above 0.2. On to DSRK, for which the “one-hybrid fitness for binding parS DNA” value is not above 0.2. Take VNDP: the “one-hybrid fitness for binding parS DNA” value turned out to be 0.246. For RCAE, the “one-hybrid fitness for binding parS DNA” value was not above 0.2.

Consider PAVY, for which the “one-hybrid fitness for binding parS DNA” value is not above 0.2. In the case of QREK, the “one-hybrid fitness for binding parS DNA” value was not above 0.2. For the variant WYSI, the “one-hybrid fitness for binding parS DNA” value was not above 0.2.

For SCGL, the “one-hybrid fitness for binding parS DNA” value was not above 0.2. For RSYL, the “one-hybrid fitness for binding parS DNA” value is not above 0.2. Consider VLPT, for which the “one-hybrid fitness for binding parS DNA” value was not above 0.2. Turning to SCTT, the “one-hybrid fitness for binding parS DNA” value was not above 0.2. AVPQ: the “one-hybrid fitness for binding parS DNA” value was not above 0.2. In the case of LTLD, the “one-hybrid fitness for binding parS DNA” value was not above 0.2. As to HWWS, the “one-hybrid fitness for binding parS DNA” value was not above 0.2.

Take WAHY: the “one-hybrid fitness for binding parS DNA” value was not above 0.2.

As to DPLR, the “one-hybrid fitness for binding parS DNA” value is not above 0.2.

As to VRNV, the “one-hybrid fitness for binding parS DNA” value was not above 0.2. Regarding MWCS, the “one-hybrid fitness for binding parS DNA” value was not above 0.2. For the variant IRNS, the “one-hybrid fitness for binding parS DNA” value is not above 0.2. To AASY belongs not above 0.2.

As for EYYF, the “one-hybrid fitness for binding parS DNA” value turned out to be 0.32. On to LDRG, for which the “one-hybrid fitness for binding parS DNA” value was not above 0.2. On to IQAS, for which the “one-hybrid fitness for binding parS DNA” value was not above 0.2.

Consider LTDE, for which the “one-hybrid fitness for binding parS DNA” value was not above 0.2. Turning to LAAQ, the “one-hybrid fitness for binding parS DNA” value was not above 0.2.

On to DRAR, for which the “one-hybrid fitness for binding parS DNA” value is not above 0.2. Consider RDSI, for which the “one-hybrid fitness for binding parS DNA” value was not above 0.2. As to AVRI, the “one-hybrid fitness for binding parS DNA” value is not above 0.2. For EPER, the “one-hybrid fitness for binding parS DNA” value is not above 0.2. With TTNA, the “one-hybrid fitness for binding parS DNA” value was not above 0.2. DVPD: the “one-hybrid fitness for binding parS DNA” value was not above 0.2. Next, TQIT: not above 0.2; SYYC: not above 0.2; EKEC: not above 0.2.

As for YADA, the “one-hybrid fitness for binding parS DNA” value was not above 0.2. Consider MYES, for which the “one-hybrid fitness for binding parS DNA” value was not above 0.2. In the case of AMHT, the “one-hybrid fitness for binding parS DNA” value is not above 0.2. To VHHK belongs not above 0.2; to LSGA, not above 0.2. Turning to NMQR, the “one-hybrid fitness for binding parS DNA” value is not above 0.2. On to GSCR, for which the “one-hybrid fitness for binding parS DNA” value was not above 0.2. Take NGPV: the “one-hybrid fitness for binding parS DNA” value is not above 0.2. To PMDC belongs not above 0.2; to KYTR, not above 0.2. As for IIVH, the “one-hybrid fitness for binding parS DNA” value is not above 0.2. As for TIPG, the “one-hybrid fitness for binding parS DNA” value is not above 0.2. As to CAVT, the “one-hybrid fitness for binding parS DNA” value was not above 0.2.

Turning to NYEG, the “one-hybrid fitness for binding parS DNA” value was not above 0.2.

Regarding KCPR, the “one-hybrid fitness for binding parS DNA” value was not above 0.2. For the variant VWSD, the “one-hybrid fitness for binding parS DNA” value is not above 0.2. As for KASL, the “one-hybrid fitness for binding parS DNA” value was not above 0.2.

LNPP: the “one-hybrid fitness for binding parS DNA” value is not above 0.2. With WYLT, the “one-hybrid fitness for binding parS DNA” value is not above 0.2. CSTE: the “one-hybrid fitness for binding parS DNA” value was not above 0.2. On to SSLD, for which the “one-hybrid fitness for binding parS DNA” value was not above 0.2.

Consider SYRP, for which the “one-hybrid fitness for binding parS DNA” value is not above 0.2. Turning to YRRL, the “one-hybrid fitness for binding parS DNA” value was not above 0.2. With VTAI, the “one-hybrid fitness for binding parS DNA” value was not above 0.2. On to QRWH, for which the “one-hybrid fitness for binding parS DNA” value is not above 0.2. AYVY: the “one-hybrid fitness for binding parS DNA” value is not above 0.2. For YNHS, the “one-hybrid fitness for binding parS DNA” value was not above 0.2. As for AWTT, the “one-hybrid fitness for binding parS DNA” value was not above 0.2. In the case of DCNG, the “one-hybrid fitness for binding parS DNA” value is not above 0.2. For NHSA, the “one-hybrid fitness for binding parS DNA” value is not above 0.2. Take STVW: the “one-hybrid fitness for binding parS DNA” value was not above 0.2. SCRE: the “one-hybrid fitness for binding parS DNA” value was not above 0.2. Take LESY: the “one-hybrid fitness for binding parS DNA” value was not above 0.2.

For the variant WVAT, the “one-hybrid fitness for binding parS DNA” value was not above 0.2. Take HPWP: the “one-hybrid fitness for binding parS DNA” value is not above 0.2. As to ENRT, the “one-hybrid fitness for binding parS DNA” value was not above 0.2. For the variant FNIS, the “one-hybrid fitness for binding parS DNA” value is not above 0.2. Turning to HLYG, the “one-hybrid fitness for binding parS DNA” value was not above 0.2. On to SSRK, for which the “one-hybrid fitness for binding parS DNA” value was not above 0.2.

As to TLEC, the “one-hybrid fitness for binding parS DNA” value is not above 0.2. HTYT: the “one-hybrid fitness for binding parS DNA” value is not above 0.2.

Regarding QEDW, the “one-hybrid fitness for binding parS DNA” value is not above 0.2. Consider QINA, for which the “one-hybrid fitness for binding parS DNA” value is not above 0.2. Next, QRTV: not above 0.2; YLAC: not above 0.2; ATVL: not above 0.2. On to AVAC, for which the “one-hybrid fitness for binding parS DNA” value was not above 0.2. In the case of DLAM, the “one-hybrid fitness for binding parS DNA” value is not above 0.2. On to LFNS, for which the “one-hybrid fitness for binding parS DNA” value was not above 0.2.

Regarding NDEG, the “one-hybrid fitness for binding parS DNA” value is not above 0.2. Turning to LWAS, the “one-hybrid fitness for binding parS DNA” value is not above 0.2.

As for QHGT, the “one-hybrid fitness for binding parS DNA” value was not above 0.2.

With CRRG, the “one-hybrid fitness for binding parS DNA” value was not above 0.2.

RLFG: the “one-hybrid fitness for binding parS DNA” value was 0.991. YKWR: the “one-hybrid fitness for binding parS DNA” value is not above 0.2.

Take RTKW: the “one-hybrid fitness for binding parS DNA” value came out at 0.668. Consider ILPT, for which the “one-hybrid fitness for binding parS DNA” value is not above 0.2. For QSIV, the “one-hybrid fitness for binding parS DNA” value is not above 0.2. RQRA: the “one-hybrid fitness for binding parS DNA” value worked out at 0.632. Turning to CWQR, the “one-hybrid fitness for binding parS DNA” value was not above 0.2. Take GLDS: the “one-hybrid fitness for binding parS DNA” value is not above 0.2.

PYKF: the “one-hybrid fitness for binding parS DNA” value is not above 0.2. For TDRP, the “one-hybrid fitness for binding parS DNA” value was not above 0.2. As to STDM, the “one-hybrid fitness for binding parS DNA” value was not above 0.2. Regarding MITR, the “one-hybrid fitness for binding parS DNA” value was not above 0.2. For ARTF, the “one-hybrid fitness for binding parS DNA” value is not above 0.2. Next, KSNF: not above 0.2. Take KQTS: the “one-hybrid fitness for binding parS DNA” value is not above 0.2. Next, QCPY: not above 0.2; RMMV: not above 0.2; GRTR: not above 0.2. Regarding SGLH, the “one-hybrid fitness for binding parS DNA” value was not above 0.2.

Regarding QTRY, the “one-hybrid fitness for binding parS DNA” value is not above 0.2. As to PREC, the “one-hybrid fitness for binding parS DNA” value was not above 0.2. EPVC: the “one-hybrid fitness for binding parS DNA” value is not above 0.2.

For the variant PCTL, the “one-hybrid fitness for binding parS DNA” value was not above 0.2.

With PYKA, the “one-hybrid fitness for binding parS DNA” value was not above 0.2.

LGGR: the “one-hybrid fitness for binding parS DNA” value is not above 0.2. PTHE: the “one-hybrid fitness for binding parS DNA” value was not above 0.2. With MTSL, the “one-hybrid fitness for binding parS DNA” value was not above 0.2.

As for DTTD, the “one-hybrid fitness for binding parS DNA” value was not above 0.2. To NQLN belongs not above 0.2.

Turning to LYLV, the “one-hybrid fitness for binding parS DNA” value was not above 0.2.

Turning to GWDC, the “one-hybrid fitness for binding parS DNA” value was not above 0.2.

In the case of ELEC, the “one-hybrid fitness for binding parS DNA” value is not above 0.2.

For the variant PSAV, the “one-hybrid fitness for binding parS DNA” value was not above 0.2. Next, ALCA: not above 0.2; LPYM: not above 0.2. To QRPD belongs not above 0.2; to VPTV, not above 0.2.

With VYML, the “one-hybrid fitness for binding parS DNA” value was not above 0.2. With NRAF, the “one-hybrid fitness for binding parS DNA” value was not above 0.2. With TQTC, the “one-hybrid fitness for binding parS DNA” value is not above 0.2. Regarding DSMA, the “one-hybrid fitness for binding parS DNA” value is not above 0.2. For the variant ALDG, the “one-hybrid fitness for binding parS DNA” value is not above 0.2. With RHNA, the “one-hybrid fitness for binding parS DNA” value is 0.543. As to PRWN, the “one-hybrid fitness for binding parS DNA” value is not above 0.2. As for RFAK, the “one-hybrid fitness for binding parS DNA” value was not above 0.2. Consider MRDC, for which the “one-hybrid fitness for binding parS DNA” value was not above 0.2. Take QRVM: the “one-hybrid fitness for binding parS DNA” value is not above 0.2.

For the variant METF, the “one-hybrid fitness for binding parS DNA” value was not above 0.2. As to MGLT, the “one-hybrid fitness for binding parS DNA” value was not above 0.2. Regarding YMQR, the “one-hybrid fitness for binding parS DNA” value is not above 0.2. As to TMPN, the “one-hybrid fitness for binding parS DNA” value was not above 0.2. Take VRGK: the “one-hybrid fitness for binding parS DNA” value is not above 0.2. Regarding VDID, the “one-hybrid fitness for binding parS DNA” value is not above 0.2.

In the case of YRAT, the “one-hybrid fitness for binding parS DNA” value was not above 0.2. For the variant EIKM, the “one-hybrid fitness for binding parS DNA” value was not above 0.2.
